B1: LINE1-mini (parent)
chain: GGCAGAGCUCAACACAGCGUGGCAAAGUGGCUGUGGCUAGACUGCC

The source gives no read counts; variants with many changes may rest on few reads.

The variants in the series derive from B1. Kind of series: self-cleavage, relative activity (ratio to wild type); higher = more cleavage; in vitro, sequencing; the parent is a self-cleaving ribozyme.
As for G17C G29U U32G, the self-cleavage was 0.05.

On to C18A G19C U20G U32A, for which the self-cleavage is 0.07. Consider G19A A26C U28C G30A, for which the self-cleavage turned out to be 0.31.

As for C18U G27C G30U, the self-cleavage came out at 0.62. G19A C23U G27A U28C G44A C46A: the self-cleavage is 0.1. As to C18G G29A C31G G36A, the self-cleavage worked out at 0.01.

Regarding C18A G19U A25U A41U, the self-cleavage was found to be 0.36. As for C18U C23A G27A G33U, the figure is 0.37. As for G17U G36U C46A, the figure is 0.08; as for C18U G19U C45G, 0.05. Regarding G17C C18U G44C, the self-cleavage was determined as 0.06. For the variant G19A A24G G40C, the self-cleavage is 0.05. The value for G17C C31A G40A was 0.04.

For the variant C18U U28C A41C, the self-cleavage was determined as 0.04. As to C18U C37A U38A A41U, the self-cleavage was found to be 0.02. Consider C18G U32A A39U, for which the self-cleavage was 0.01. The value for C18U C31A C37U G44U was 0.01; that for G17U G29U C31U was 0.08; that for C18A G19A G36U C46U was 0.04. As for G17C G19C G27C U32C C42G, the figure is 0.03; as for G17C U34C G40A, 0.03; as for G17U U20A G27A, 0.37.

Regarding C18U G33C C45A, the self-cleavage stood at 0.02.

With C18G A26U G40A, the self-cleavage was 0.01. The value for G17U G30U C42G was 0.03; that for C18A G21U G40U was 0.02.

For the variant C18A U20C G40U C42G, the self-cleavage worked out at 0.01. As for G17U C31G C46A, the figure is 0.04; as for C18G U38A G40C, 0.05; as for C18U G19C G35U C37A G40C, 0.05. As for G17U G19A U28G C45U, the figure is 0.25; as for G19A A24U A25C G27U, 0.53. The value for G17U U34C A39G was 0.03. For G19A A24U A26G C37U U38G A39U U43G C45U, the self-cleavage was found to be 0.05. Turning to G17U G22U C23A G27C A41G, the self-cleavage stood at 0.43. The value for G17C G22A A25U U28A was 0.71. As for G17U G40A C45U, the figure is 0.03; as for C18G C23A U34C G35U, 0.

As for C18G G29A G30A C31G, the self-cleavage worked out at 0.27. As for G17C G21U U38G A41U, the figure is 0.03; as for C18U C23G G29U U32A, 0.05; as for C18U U20G C46U, 0.02. The value for C18U G21C C31U was 0.05; that for C18U G27A G30U was 1.06. As to C18U G19C C31A, the self-cleavage was determined as 0.21. As for C18G G35U A41U C42U, the figure is 0.04; as for C18U G22U G36A C42G, 0.02. The value for C18U A24G A25G G27C C45G was 0.07; that for C18U U34C C42A was 0.06; that for C18U U34C G36C was 0.04. As for C18U G19A U34A, the figure is 0.02; as for C18U G30U G40C A41G, 0.01. As for G17C G35C G44C C45U C46G, the self-cleavage came to 0.02. As for C18A G19U A25G G30C, the figure is 0.18; as for C18A C31U U43A C46U, 0.01. As for C18A G36U A41G, the figure is 0.04; as for C18G A24U U28A U32A G44C, 0.01; as for G17C G29U G33A, 0.04. As for C18G G21C G35C, the figure is 0.08; as for C18U G19U G40A, 0.1. Turning to G17C C31G A39G C46G, the self-cleavage stood at 0.05. As for C18A C23U C37G, the figure is 0.05; as for G17C C18A A24G, 0.08; as for G19A C23U C46A, 0.45.

For the variant G19A C23U G36C C37A, the self-cleavage worked out at 0.13. With C18A G27U U38A C45A C46G, the self-cleavage was 0.08. The value for G17U G19C G36C U43C was 0.03; that for C18G G21U G27C was 2.21; that for C18U G22U G27U G30U C37A was 0.14. For G17U G22U U34G, the self-cleavage was 0.04. The value for C18A C42A U43C C46G was 0.08; that for C18G C37A A39U was 0.05. Take C18U U28C C37U: the self-cleavage came out at 0.01.

As to C18G G27C U38A G44U, the self-cleavage is 0.07. As for G17U G21A A26U G30C, the figure is 0.08. The value for C18U G19U G22A C23U A24G G44U was 0.03. For the variant C18A G29C C46A, the self-cleavage is 0.32. As for G17U U28C U32A, the figure is 0.07.

Regarding G17U U32G G36U C46U, the self-cleavage is 0.03. The value for G17C G19A A39G U43A was 0.13. The value for G17U G19C G40U U43A was 0.05; that for C18A A39C C45U was 0.05; that for G17U G22C C23A was 0.47. The value for C18U U38C G44C was 0.11. Take C18U G30U U34G: the self-cleavage was found to be 0.04. G17C C23G A26U G30U: the self-cleavage came out at 0.01. The value for C18A U20G G30A U32A was 0.05; that for G17U C31U U32G U38G was 0.01. Turning to G17C C18U G30U, the self-cleavage turned out to be 0.03. The value for G19A A25U C46G was 1.11. As for C18G C23U A24G G27C A41U G44A, the figure is 0.1; as for C18U G19U C23A C37U A41G, 0.02; as for G17U A26G C37A, 0.15.

For C18U U20A G21U C31G, the self-cleavage was found to be 0.1. As for C18A U32G G33U G44C, the figure is 0.04; as for G17C G22C C45G, 0.04; as for C18A A24U C42U, 0.07. The value for C18A U20A G33C G35U was 0.02; that for G17C U28C G36C G40U was 0.08; that for C18G G19A A39C C42A G44C C45G was 0.03. Take C18U C23A A26G G30A C31A U32C G36A C37U: the self-cleavage stood at 0.05. As for C18G G19A U38A, the figure is 1.77; as for G19A A24G G35A, 0.1. The value for G17C G22U C23A was 1.37; that for G17U G21A C23A was 0.13; that for G17C C18A G29U was 0.05. The value for C18A G30A U34G C42A was 0.01; that for C18U U32C C37U was 0.04.

With C18G G22U C37A, the self-cleavage turned out to be 0.12. C18A G19C A26G G35C A41C: the self-cleavage was found to be 0.01. For G17U G30A U32C C42U, the self-cleavage amounted to 0.04. The value for C18G G27C G30U was 1.19. As for C18A G19C G40U, the figure is 0.01; as for C18G U20G G30A, 0.21. As for C18G A26G C42G, the figure is 0.01. Consider G17U C45U C46G, for which the self-cleavage came to 0.04.

As to G17C C18G A39C, the self-cleavage is 0.01. The value for C18G G22U G40U C42U C45G was 0.03; that for G17U G36A C37U G40A was 0.06; that for G19A G21C G35A was 0.18. The value for C18U G19C C42G was 0.08.

As to C18U U28G G30A, the self-cleavage was determined as 0.89. In the case of C18A G19A U20C A39C, the self-cleavage worked out at 0.24. As for G17U G22A C23A A24G G36U, the figure is 0.03; as for G17U G27A G30A C42U, 0.23. C18G A25U G36A: the self-cleavage came out at 0.08. For the variant C18G A25U G36U, the self-cleavage is 0.01. The value for C18U G19C A24U U32C was 0.11; that for G17U G27U C46U was 0.53. The value for G17U U20C A24U A25G A41G was 0.01; that for G17C G30A U34C was 0.03. The value for G17U A41U C46U was 0.04; that for G17U G29U G36A was 0.09; that for C18A U34A G40A C42G was 0. Regarding G17U G35U G36A C46G, the self-cleavage stood at 0.05. Regarding G19A C23A A26G U28A G30A C42U C46G, the self-cleavage is 0.08. The value for G17U A39U C42A U43C was 0.02.

As for C18U A24C G30U U38C C46G, the self-cleavage is 0.01.

Consider G17U C37U C42A, for which the self-cleavage amounted to 0.01. As for G17U C23A A25C U28C G30A G35U, the figure is 0.02; as for C18U A24G A25U G27A C46G, 0.23; as for G17U C18U G19A, 0.07. Regarding C18U G19U U28C, the self-cleavage was found to be 0.98. G17U C23A G27C: the self-cleavage came to 1.52. Consider C18U A26G G29A U32A, for which the self-cleavage was found to be 0.09. The value for C18A G19C G29C C45G was 0.13.

In the case of G17C U38A A39U U43C, the self-cleavage was determined as 0.02. For the variant C18A U28A C31G, the self-cleavage is 0.12. The value for G17C G21U A41C was 0.02; that for C18A G35C G44U was 0.03; that for C18G C23G A39G was 0.05. As for C18G G22U G29U C45U C46A, the figure is 0.12; as for C18U G22U C45A, 0.38.

G17C G22C U28G C46A: the self-cleavage turned out to be 0.06. The value for G17C G21C G29U C31U was 0.06; that for C18G G21C G30U was 0.36; that for C18U G27A U28A C31U G35U G44A was 0.01. For C18A G35C C46G, the self-cleavage stood at 0.04. The value for C18A G44U C46U was 0.03.

In the case of C18A G27U C37A, the self-cleavage came out at 0.09.

Take C18U G21U C37U C45A: the self-cleavage amounted to 0.01. As for G17U C31A A39U, the figure is 0.51; as for G17C G22U A25C A39U, 0.77. As for C18A G22U G27A G29U G40A C45A, the figure is 0.19. As for C18U A26U U34G, the figure is 0.11; as for C18A U32C G40C, 0.04. C18U C31U G33C C42A: the self-cleavage came to 0.08.

For the origin of these results see the RNAGym collection of RNA variant scans (doi:10.7554/elife.90254).
